IC50 is the fitted dose that halves viability relative to control wells, and lower means more sensitive; a fit beyond the top or the lowest dose is shown as a bound at that dose. AUC, from the same fit, is the share of area under the viability curve across the 256-fold dose range; the more sensitive the line, the further below 1. A top dose marked as inferred was calculated from the reported fits.
Compound: C=CC(=O)Nc1cccc(Nc2nc(NC3CCC(N(C)C)CC3)nc3c2ncn3C(C)C)c1 [WZ3105]
Assay: Viability of human cancer cell lines after 72 h of drug (GDSC screen)
Settings: top dose inferred
Method: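 Human cancer cell lines in 384-well plates, medium with 10% serum, drug for 72 h over a 256-fold dose range (nine 2-fold or five 4-fold steps up to the top dose). Adherent lines were fixed and stained with the nucleic acid dye Syto60, suspension lines read with resazurin; signal relative to control wells, capped at 0 and 100%. One two-parameter sigmoid per drug and line, fitted in a mixed model over all curves with the slope shared within a line.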

Cell Line: Raji (Burkitt lymphoma, suspension, top dose 1.28 µM)
- AUC: 0.707
- IC50: 293 nM

Cell Line: Ramos-2G6-4C10 (Burkitt lymphoma, suspension, top dose 1.28 µM)
- AUC: 0.55
- IC50: 107 nM

Cell Line: SAS (head and neck, adherent, top dose 1.28 µM)
- AUC: 0.79
- IC50: 640 nM

Cell Line: SAT (head and neck, adherent, top dose 1.28 µM)
- AUC: 0.889
- IC50: > 1280 nM

Cell Line: SBC-1 (small cell lung carcinoma, suspension, top dose 1.28 µM)
- AUC: 0.567
- IC50: 121 nM

Cell Line: SBC-3 (small cell lung carcinoma, adherent, top dose 1.28 µM)
- AUC: 0.608
- IC50: 154 nM

Cell Line: SBC-5 (small cell lung carcinoma, adherent, top dose 1.28 µM)
- AUC: 0.965
- IC50: > 1280 nM

Cell Line: SCC-3 (B-cell lymphoma, suspension, top dose 1.28 µM)
- AUC: 0.669
- IC50: 205 nM

Cell Line: SCC-4 (head and neck, adherent, top dose 1.28 µM)
- AUC: 0.906
- IC50: > 1280 nM

Cell Line: SCC-9 (head and neck, adherent, top dose 1.28 µM)
- AUC: 0.812
- IC50: 931 nM

Cell Line: SCC-15 (head and neck, adherent, top dose 1.28 µM)
- AUC: 0.918
- IC50: > 1280 nM

Cell Line: SCC-25 (head and neck, adherent, top dose 1.28 µM)
- AUC: 0.841
- IC50: 1070 nM

Cell Line: SCH (stomach, adherent, top dose 1.28 µM)
- AUC: 0.988
- IC50: > 1280 nM

Cell Line: SF126 (glioma, adherent, top dose 1.28 µM)
- AUC: 0.984
- IC50: > 1280 nM

Cell Line: SF268 (glioma, adherent, top dose 1.28 µM)
- AUC: 0.679
- IC50: 265 nM

Cell Line: SF295 (glioma, adherent, top dose 1.28 µM)
- AUC: 0.974
- IC50: > 1280 nM

Cell Line: SF539 (glioma, adherent, top dose 1.28 µM)
- AUC: 0.738
- IC50: 350 nM

Cell Line: SH-4 (melanoma, adherent, top dose 1.28 µM)
- AUC: 0.898
- IC50: > 1280 nM

Cell Line: SHP-77 (small cell lung carcinoma, semi-adherent, top dose 1.28 µM)
- AUC: 0.989
- IC50: > 1280 nM

Cell Line: SIG-M5 (acute myeloid leukaemia, suspension, top dose 1.28 µM)
- AUC: 0.49
- IC50: 75.5 nM

Cell Line: SIMA (neuroblastoma, adherent, top dose 1.28 µM)
- AUC: 0.981
- IC50: > 1280 nM

Cell Line: SISO (cervix, adherent, top dose 1.28 µM)
- AUC: 0.924
- IC50: > 1280 nM

Cell Line: SJRH30 (rhabdomyosarcoma, adherent, top dose 1.28 µM)
- AUC: 0.599
- IC50: 150 nM

Cell Line: SJSA-1 (bone, adherent, top dose 1.28 µM)
- AUC: 0.814
- IC50: 809 nM

Cell Line: SK-CO-1 (large intestine, adherent, top dose 1.28 µM)
- AUC: 0.74
- IC50: 370 nM

Cell Line: SK-ES-1 (Ewing sarcoma, semi-adherent, top dose 1.28 µM)
- AUC: 0.509
- IC50: 84.7 nM

Cell Line: SK-GT-4 (oesophagus, adherent, top dose 1.28 µM)
- AUC: 0.738
- IC50: 458 nM

Cell Line: SK-HEP-1 (liver, adherent, top dose 1.28 µM)
- AUC: 0.936
- IC50: > 1280 nM

Cell Line: SK-LMS-1 (soft tissue, adherent, top dose 1.28 µM)
- AUC: 0.913
- IC50: > 1280 nM

Cell Line: SK-LU-1 (lung adenocarcinoma, adherent, top dose 1.28 µM)
- AUC: 0.85
- IC50: > 1280 nM

Cell Line: SK-MEL-1 (melanoma, suspension, top dose 1.28 µM)
- AUC: 0.95
- IC50: > 1280 nM

Cell Line: SK-MEL-2 (melanoma, adherent, top dose 1.28 µM)
- AUC: 0.765
- IC50: 487 nM

Cell Line: SK-MEL-3 (melanoma, adherent, top dose 1.28 µM)
- AUC: 0.696
- IC50: 314 nM

Cell Line: SK-MEL-5 (melanoma, adherent, top dose 1.28 µM)
- AUC: 0.889
- IC50: > 1280 nM

Cell Line: SK-MEL-24 (melanoma, adherent, top dose 1.28 µM)
- AUC: 0.983
- IC50: > 1280 nM

Cell Line: SK-MEL-28 (melanoma, adherent, top dose 1.28 µM)
- AUC: 0.844
- IC50: 889 nM

Cell Line: SK-MEL-30 (melanoma, adherent, top dose 1.28 µM)
- AUC: 0.77
- IC50: 513 nM

Cell Line: SK-MES-1 (lung squamous cell carcinoma, adherent, top dose 1.28 µM)
- AUC: 0.846
- IC50: 1060 nM

Cell Line: SK-MG-1 (glioma, adherent, top dose 1.28 µM)
- AUC: 0.982
- IC50: > 1280 nM

Cell Line: SK-MM-2 (myeloma, suspension, top dose 1.28 µM)
- AUC: 0.959
- IC50: > 1280 nM

Cell Line: SK-N-AS (neuroblastoma, adherent, top dose 1.28 µM)
- AUC: 0.851
- IC50: 1220 nM

Cell Line: SK-N-DZ (neuroblastoma, adherent, top dose 1.28 µM)
- AUC: 0.988
- IC50: > 1280 nM

Cell Line: SK-N-FI (neuroblastoma, adherent, top dose 1.28 µM)
- AUC: 0.988
- IC50: > 1280 nM

Cell Line: SK-N-SH (neuroblastoma, adherent, top dose 1.28 µM)
- AUC: 0.987
- IC50: > 1280 nM

Cell Line: SK-OV-3 (ovary, adherent, top dose 1.28 µM)
- AUC: 0.74
- IC50: 473 nM

Cell Line: SK-PN-DW (Ewing sarcoma, adherent, top dose 1.28 µM)
- AUC: 0.705
- IC50: 310 nM

Cell Line: SK-UT-1 (soft tissue, adherent, top dose 1.28 µM)
- AUC: 0.906
- IC50: > 1280 nM

Cell Line: SKG-IIIa (cervix, adherent, top dose 1.28 µM)
- AUC: 0.978
- IC50: > 1280 nM

Cell Line: SKN (uterus, adherent, top dose 1.28 µM)
- AUC: 0.829
- IC50: 1040 nM

Cell Line: SKN-3 (head and neck, adherent, top dose 1.28 µM)
- AUC: 0.845
- IC50: 1190 nM

Cell Line: SLVL (B-cell lymphoma, suspension, top dose 1.28 µM)
- AUC: 0.461
- IC50: 62.2 nM

Cell Line: SN12C (kidney, adherent, top dose 1.28 µM)
- AUC: 0.96
- IC50: > 1280 nM

Cell Line: SNB75 (glioma, adherent, top dose 1.28 µM)
- AUC: 0.762
- IC50: 675 nM

Cell Line: SNG-M (endometrium, adherent, top dose 1.28 µM)
- AUC: 0.795
- IC50: 580 nM

Cell Line: SNU-61 (large intestine, adherent, top dose 1.28 µM)
- AUC: 0.782
- IC50: 721 nM

Cell Line: SNU-81 (large intestine, adherent, top dose 1.28 µM)
- AUC: 0.737
- IC50: 488 nM

Cell Line: SNU-175 (large intestine, suspension, top dose 1.28 µM)
- AUC: 0.63
- IC50: 179 nM

Cell Line: SNU-182 (liver, adherent, top dose 1.28 µM)
- AUC: 0.795
- IC50: 624 nM

Cell Line: SNU-387 (liver, adherent, top dose 1.28 µM)
- AUC: 0.823
- IC50: 900 nM

Cell Line: SNU-398 (liver, adherent, top dose 1.28 µM)
- AUC: 0.757
- IC50: 456 nM

Cell Line: SNU-407 (large intestine, adherent, top dose 1.28 µM)
- AUC: 0.912
- IC50: > 1280 nM

Cell Line: SNU-423 (liver, adherent, top dose 1.28 µM)
- AUC: 0.824
- IC50: 940 nM

Cell Line: SNU-449 (liver, adherent, top dose 1.28 µM)
- AUC: 0.98
- IC50: > 1280 nM

Cell Line: SNU-475 (liver, adherent, top dose 1.28 µM)
- AUC: 0.935
- IC50: > 1280 nM

Cell Line: SNU-1040 (large intestine, adherent, top dose 1.28 µM)
- AUC: 0.593
- IC50: 157 nM

Cell Line: SNU-C1 (large intestine, suspension, top dose 10.24 µM)
- AUC: 0.865
- IC50: > 10200 nM

Cell Line: SNU-C2B (large intestine, adherent, top dose 10.24 µM)
- AUC: 0.477
- IC50: 543 nM

Cell Line: SNU-C5 (large intestine, adherent, top dose 1.28 µM)
- AUC: 0.919
- IC50: > 1280 nM

Cell Line: SR (lymphoid neoplasm, suspension, top dose 1.28 µM)
- AUC: 0.551
- IC50: 108 nM

Cell Line: ST486 (Burkitt lymphoma, suspension, top dose 1.28 µM)
- AUC: 0.499
- IC50: 79.5 nM

Cell Line: SU8686 (pancreas, adherent, top dose 1.28 µM)
- AUC: 0.765
- IC50: 524 nM

Cell Line: SU-DHL-1 (anaplastic large cell lymphoma, suspension, top dose 1.28 µM)
- AUC: 0.627
- IC50: 162 nM

Cell Line: SU-DHL-4 (B-cell lymphoma, suspension, top dose 1.28 µM)
- AUC: 0.607
- IC50: 145 nM

Cell Line: SU-DHL-5 (B-cell lymphoma, suspension, top dose 1.28 µM)
- AUC: 0.593
- IC50: 135 nM

Cell Line: SU-DHL-6 (B-cell lymphoma, suspension, top dose 1.28 µM)
- AUC: 0.445
- IC50: 58.7 nM

Cell Line: SU-DHL-8 (B-cell lymphoma, suspension, top dose 1.28 µM)
- AUC: 0.574
- IC50: 126 nM

Cell Line: SU-DHL-10 (B-cell lymphoma, suspension, top dose 1.28 µM)
- AUC: 0.607
- IC50: 145 nM

Cell Line: SU-DHL-16 (B-cell lymphoma, suspension, top dose 1.28 µM)
- AUC: 0.46
- IC50: 64.1 nM

Cell Line: SUIT-2 (pancreas, adherent, top dose 1.28 µM)
- AUC: 0.986
- IC50: > 1280 nM

Cell Line: SUP-B15 (lymphoblastic leukaemia, suspension, top dose 1.28 µM)
- AUC: 0.601
- IC50: 150 nM

Reference: the supplement of paper PMC4967469
